# Measurements taken from the supplement of paper PMC10126150.
# Sequences with one replicate were seen in a single cluster, so their values are uncertain.
# System: ATP
# Experiment: switch fluorescence ratio, 500 uM ATP over buffer (Cy3 cluster intensity, sum of 5 cycles each) (fold (ratio)); higher = stronger signal-on switching upon ATP binding; sequences stand for … in TCGTCGGCAGCGTCAGATGTGTATAAGAGACAGTTTTTTTTTTTTTTTTTTTTTTTTT…TC
# Conditions: aptamer strand: ATP DNA aptamer (quencher-CACCTGGGGGAGTATTGCGGAGGAAGG + anchor), 100 nM annealed; ATP concentration: 500 uM; one replicate
# How it was run: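 After annealing to 100 nM quencher-labelled ATP aptamer, Cy3-labelled switching-strand clusters on a modified Illumina MiSeq flow-cell were imaged in selection buffer. A second image followed after 15 min with 500 uM ATP at 22 °C, and five such buffer/ATP cycles were done, each separated by NaOH stripping and re-annealing. The fluorescence ratio, averaged per switch-domain sequence, is summed target-cycle over summed buffer-cycle Cy3 intensity per cluster, with clusters outside 100-1000 RFU excluded.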
# 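Note: ATP exposure 15 min at 22 °C before imaging.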
row,Sequence,switch fluorescence ratio
1,GAGGAGCACA,1.08
2,GAGGAGGCAT,1.01
3,GAGGAGTGCA,0.981
4,GAGGATGAAA,0.966
5,GAGGATGTAT,1.07
6,GAGGATTTT,0.953
7,GAGGCAATTA,4.53
8,GAGGCACATT,1.06
9,GAGGCACTAT,1.25
10,GAGGCGGAGA,0.986
11,GAGGGAAACC,0.937
12,GAGGGAGATC,1.04
13,GAGGGCCTTG,0.974
14,GAGGGCGAAA,1.04
15,GAGGGGTCCC,0.947
16,GAGGGTCCCT,0.957
17,GAGGGTTATT,0.956
18,GAGGTAAAGA,1.05
19,GAGGTACCA,1
20,GAGGTACTGC,0.986
21,GAGGTGGCCG,1.05
22,GAGGTGTGAA,0.955
23,GAGGTTCATG,1
24,GAGGTTCGAG,0.982
25,GAGGTTCGCC,1.03
26,GAGGTTTCTG,1.05

row,Sequence,switch fluorescence ratio
1,GAGGTTTGGA,1.04
2,GAGTAACGCG,1.06
3,GAGTAATACG,1.3
4,GAGTACGAGG,1.01
5,GAGTACTACC,1.06
6,GAGTAGCTGT,1
7,GAGTAGGGCT,0.933
8,GAGTATAGCT,1.05
9,GAGTATCAAT,1.04
10,GAGTCAGGGC,1.01
11,GAGTCCAA,1.04
12,GAGTCCACGG,1.01
13,GAGTCTAGAA,0.988
14,GAGTCTTTTC,1.01
15,GAGTGAAATC,1.01
16,GAGTGACGCC,1.03
17,GAGTGATAGT,1.05
18,GAGTGCAAAG,1
19,GAGTGCGCAT,0.991
20,GAGTGCTCT,1.06
21,GAGTGGGCTG,0.945
22,GAGTGGTAAT,1.01
23,GAGTGGTGGC,1.05
24,GAGTGGTTTC,1.04
25,GAGTGTATGC,1.03
26,GAGTGTTGCG,1.01

row,Sequence,switch fluorescence ratio
1,GAGTGTTGGC,0.995
2,GAGTTCATG,0.96
3,GAGTTCTACA,1.03
4,GAGTTGCCGG,1.05
5,GAGTTGTGTG,1
6,GAGTTGTTTC,0.972
7,GAGTTTCTCG,1.01
8,GAGTTTTGTC,1.01
9,GATAAAAAG,0.961
10,GATAACTTCC,2.54
11,GATAAGATCG,1.03
12,GATAATCGAA,0.974
13,GATAATTACA,1.03
14,GATAATTGTG,0.944
15,GATACACGG,0.978
16,GATACAGATG,1.03
17,GATACATGGT,1.01
18,GATACCGGCG,1.04
19,GATACGCGT,1.01
20,GATACGGGTA,1.15
21,GATACGGTAA,1.11
22,GATACTTGG,0.986
23,GATAGATATT,1.03
24,GATAGGAATG,0.991
25,GATAGGACG,1.08
26,GATATAAGTT,1.06

row,Sequence,switch fluorescence ratio
1,GATATAATAC,1.54
2,GATATCTGCC,1
3,GATATGATAA,0.968
4,GATATGGTCA,0.988
5,GATATGTTAT,0.964
6,GATCACAGGC,1.07
7,GATCACTCTG,1.05
8,GATCAGGAAA,0.998
9,GATCAGTTAG,1.02
10,GATCATGGTT,1.04
11,GATCCATAGG,0.973
12,GATCCGGTT,1.01
13,GATCCTATTC,1.04
14,GATCGAAGAA,1.22
15,GATCGACAAT,1.2
16,GATCGACATT,1.07
17,GATCGCGTAG,1.06
18,GATCGGGCGT,0.966
19,GATCGGGTCT,0.981
20,GATCGGTCTT,0.952
21,GATCGGTGAG,1.01
22,GATCGTGCAA,1.26
23,GATCTAAGTG,0.981
